Some of the results follow. Most values come without repeats; read them as rough.
Key:
Test in all cases: cell count relative to DMSO control; melanoma cells; higher = more viable cells
Conditions in all cases: library dose: low library concentration; 72 h
[1] = test system: WM115
[2] = test system: WM1716
[3] = test system: WM1745
[4] = test system: WM3526
[5] = test system: WM3619
[6] = test system: WM451Lu
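Further: cell number obtained by counting DAPI-stained nuclei in high-throughput microscope images with image analysis software, screen run in 1,536-well plates.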

Structure (SMILES)	cell count [1]	cell count [2]	cell count [3]	cell count [4]	cell count [5]	cell count [6]
Cc1cn(-c2cc(NC(=O)c3ccc(C)c(Nc4nccc(-c5cccnc5)n4)c3)cc(C(F)(F)F)c2)cn1 [nilotinib] + N.N.[Cl][Pt][Cl] [cisplatin] (first compound 0.2 µM, partner dose 1.6 µM)	91%	101%	90.3%	88.9%	75.6%	100%
CCN(CC)CCCCNc1ncc2cc(-c3cc(OC)cc(OC)c3)c(NC(=O)NC(C)(C)C)nc2n1 + Cc1cc(SCc2sc(-c3ccc(C(F)(F)F)c(F)c3)nc2C)ccc1OCC(=O)O [GW0742] (first compound 0.1 µM, partner dose 2 µM)	89.5%	94.9%	85.2%	99.4%	114%	96.7%
Nc1nc(F)nc2c1ncn2[C@@H]1O[C@H](CO)[C@@H](O)[C@@H]1O [fludarabine] + C/C(O)=C(\C#N)C(=O)Nc1cc(Br)ccc1Br [LFM-A13] (first compound 0.2 µM, partner dose 2 µM)	101%	109%	107%	28.5%	128%	40.3%
Cc1cc(SCc2sc(-c3ccc(C(F)(F)F)c(F)c3)nc2C)ccc1OCC(=O)O + Cc1cc([N+](=O)[O-])ccc1NS(=O)(=O)c1cc(Cl)ccc1Cl [FH535] (first compound 2 µM, partner dose 1 µM)	86.9%	105%	84.5%	109%	101%	112%
CCCCCCCCCCCCCCCCCCOP(=O)([O-])OC1CC[N+](C)(C)CC1 [Perifosine] + Cc1cc(SCc2sc(-c3ccc(C(F)(F)F)c(F)c3)nc2C)ccc1OCC(=O)O [GW0742] (first compound 0.4 µM, partner dose 2 µM)	98.7%	88%	83.6%	90.5%	95.7%	100%
Nc1ncn([C@H]2C[C@H](O)[C@@H](CO)O2)c(=O)n1 [decitabine] + O=C(Oc1ccc([N+](=O)[O-])cc1)N1CCC(C(O)(c2ccc3c(c2)OCO3)c2ccc3c(c2)OCO3)CC1 [JZL184] (first compound 0.1 µM, partner dose 1 µM)	78.1%	82.2%	113%	86%	96.5%	97.4%
Cn1cnc2c(F)c(Nc3ccc(Br)cc3Cl)c(C(=O)NOCCO)cc21 [selumetinib] + Cc1cc(SCc2sc(-c3ccc(C(F)(F)F)c(F)c3)nc2C)ccc1OCC(=O)O [GW0742] (first compound 0.015 µM, partner dose 2 µM)	90.2%	123%	103%	79.8%	90.1%	111%
NC(=O)c1ccc(N(C(N)=O)c2c(F)cccc2F)nc1-c1ccc(F)cc1F + C/C(O)=C(\C#N)C(=O)Nc1cc(Br)ccc1Br [LFM-A13] (first compound 0.4 µM, partner dose 2 µM)	96.8%	97.9%	96.4%	86.1%	91.5%	94.5%
Cn1c(=O)n(-c2ccc(C(C)(C)C#N)cc2)c2c3cc(-c4cnc5ccccc5c4)ccc3ncc21 + C/C(O)=C(\C#N)C(=O)Nc1cc(Br)ccc1Br [LFM-A13] (first compound 0.004 µM, partner dose 2 µM)	92.1%	84.1%	90.1%	82.1%	82%	92.5%
Cn1sc(=O)n(Cc2ccccc2)c1=O + C/C(O)=C(\C#N)C(=O)Nc1cc(Br)ccc1Br [LFM-A13] (first compound 0.4 µM, partner dose 2 µM)	93.5%	116%	113%	98.9%	118%	108%
CS(=O)(=O)CCNCc1ccc(-c2ccc3ncnc(Nc4ccc(OCc5cccc(F)c5)c(Cl)c4)c3c2)o1 [lapatinib] + C[As](C)SC[C@H](NC(=O)CC[C@H](N)C(=O)O)C(=O)NCC(=O)O [Darinaparsin] (first compound 0.8 µM, partner dose 0.4 µM)	103%	116%	102%	115%	111%	90.6%
CCN(CC)CCCCNc1ncc2cc(-c3cc(OC)cc(OC)c3)c(NC(=O)NC(C)(C)C)nc2n1 + O=C(Oc1ccc([N+](=O)[O-])cc1)N1CCC(C(O)(c2ccc3c(c2)OCO3)c2ccc3c(c2)OCO3)CC1 [JZL184] (first compound 0.1 µM, partner dose 1 µM)	97.2%	106%	107%	96.8%	91.8%	92.3%
Cc1cc(SCc2sc(-c3ccc(C(F)(F)F)c(F)c3)nc2C)ccc1OCC(=O)O + CC(C)CCN1c2nc(Nc3cc(F)c(O)c(F)c3)ncc2N(C)C(=O)C1C [BID1870] (first compound 2 µM, partner dose 0.2 µM)	87.5%	99.3%	81.7%	107%	121%	103%
CCCS(=O)(=O)Nc1ccc(F)c(C(=O)c2c[nH]c3ncc(Cl)cc23)c1F + Cc1cc(SCc2sc(-c3ccc(C(F)(F)F)c(F)c3)nc2C)ccc1OCC(=O)O [GW0742] (first compound 0.08 µM, partner dose 2 µM)	102%	121%	80.7%	71.8%	105%	104%
NCC(=O)Nc1ccc(-n2nc(C(F)(F)F)cc2-c2ccc3c(ccc4ccccc43)c2)cc1 + O=C(Oc1ccc([N+](=O)[O-])cc1)N1CCC(C(O)(c2ccc3c(c2)OCO3)c2ccc3c(c2)OCO3)CC1 [JZL184] (first compound 1 µM, partner dose 1 µM)	105%	99.8%	103%	69.3%	102%	63.1%
COc1cc2c(Oc3ccc4[nH]c(C)cc4c3F)ncnc2cc1OCCCN1CCCC1 [cediranib] + Cc1cc(SCc2sc(-c3ccc(C(F)(F)F)c(F)c3)nc2C)ccc1OCC(=O)O [GW0742] (first compound 0.4 µM, partner dose 2 µM)	106%	109%	83.4%	117%	105%	99.7%
C/C(O)=C(\C#N)C(=O)Nc1cc(Br)ccc1Br + O=c1cc(-c2cccc3c2Sc2ccccc2S3)oc(N2CCOCC2)c1 [KU55933] (first compound 2 µM, partner dose 1 µM)	105%	98.6%	83.8%	85.4%	123%	104%
O=C(Nc1cc(C(F)(F)F)cc(C(F)(F)F)c1)c1cc(Cl)ccc1O + C[As](C)SC[C@H](NC(=O)CC[C@H](N)C(=O)O)C(=O)NCC(=O)O [Darinaparsin] (first compound 0.016 µM, partner dose 0.4 µM)	106%	107%	97.7%	88.2%	113%	104%
N#CC[C@H](C1CCCC1)n1cc(-c2ncnc3[nH]ccc23)cn1 [ruxolitinib] + C[C@]12O[C@H](C[C@]1(O)CO)n1c3ccccc3c3c4c(c5c6ccccc6n2c5c31)CNC4=O [Lestaurtinib] (first compound 1 µM, partner dose 0.004 µM)	106%	102%	92.4%	81.8%	93.6%	101%
Cn1cnc2c(F)c(Nc3ccc(Br)cc3Cl)c(C(=O)NOCCO)cc21 [selumetinib] + Cn1cc(C2=C(c3cn(C4CCN(Cc5ccccn5)CC4)c4ccccc34)C(=O)NC2=O)c2ccccc21 [Enzastaurin] (first compound 0.015 µM, partner dose 0.8 µM)	97.4%	113%	104%	82.5%	67.2%	94.5%
COc1cc([C@@H]2c3cc4c(cc3[C@@H](O[C@@H]3O[C@@H]5CO[C@@H](C)O[C@H]5[C@H](O)[C@H]3O)[C@H]3COC(=O)[C@H]23)OCO4)cc(OC)c1O [etoposide] + C[As](C)SC[C@H](NC(=O)CC[C@H](N)C(=O)O)C(=O)NCC(=O)O [Darinaparsin] (first compound 0.02 µM, partner dose 0.4 µM)	97.1%	109%	104%	99.6%	110%	108%
O=C(/C=C/c1cccnc1)NCCCCC1CCN(C(=O)c2ccccc2)CC1 + C[C@]12O[C@H](C[C@]1(O)CO)n1c3ccccc3c3c4c(c5c6ccccc6n2c5c31)CNC4=O [Lestaurtinib] (first compound 0.01 µM, partner dose 0.004 µM)	91%	101%	97.8%	89.3%	65.1%	133%
C[C@]1(c2nc3c(C(N)=O)cccc3[nH]2)CCCN1 [Veliparib] + C/C(O)=C(\C#N)C(=O)Nc1cc(Br)ccc1Br [LFM-A13] (first compound 1.4 µM, partner dose 2 µM)	89.3%	89.6%	73.5%	102%	107%	102%
Nc1ncn([C@H]2C[C@H](O)[C@@H](CO)O2)c(=O)n1 [decitabine] + C/C(O)=C(\C#N)C(=O)Nc1cc(Br)ccc1Br [LFM-A13] (first compound 0.1 µM, partner dose 2 µM)	82.8%	85.5%	97.7%	78.4%	87.1%	100%
O=C(O)[C@@H]1[O][Sb](=[O])([O][Sb]2(=[O])[O][C@H]([C@H](O)CO)[C@H](O)[C@H](C(=O)O)[O]2)[O][C@H]([C@H](O)CO)[C@@H]1O (stereo not given in full) [stibogluconate] + O=C(Oc1ccc([N+](=O)[O-])cc1)N1CCC(C(O)(c2ccc3c(c2)OCO3)c2ccc3c(c2)OCO3)CC1 [JZL184] (first compound 2 µM, partner dose 1 µM)	95.8%	108%	106%	92.9%	93%	92.4%

From the supplement of paper PMC4604168 (melanoma cell lines)
